Assay results reported in PubChem BioAssay AID1768 (National Center for Advancing Translational Sciences (NCATS), 2009).
The campaign covered roughly 270,000 compounds. About 620 (0.23%) were called active. The shares of active, inactive and inconclusive entries below differ from those in the screen. The call rests on the fitted dose curve; in most records, active means well fitted inhibition curve with a large enough effect in the polarisation, with a control signal flat (not every such curve was filed as active); inconclusive means small, poorly fitted or top-dose-only effect, or effect the other way, or a change in a side signal; inactive means no such curve, though single readings can be large or run the other way; the % refers to the polarisation. A potency beside an inconclusive call is a rough fit, not a confirmed value. “Side channel” marks fits to a control or component signal instead of the main read-out.

molecular target: Menin (Homo sapiens) (UniProt O00255); experiment: qHTS Assay for Inhibitors Targeting the Menin-MLL Interaction in MLL Related Leukemias: Competition With Texas Red Labeled MLL-derived Mutant Peptide; conditions: fluorescence polarization; FP activity change, negative = inhibition: at 61.6 µM (top of the series); on FP activity change, negative = inhibition: % of control where 0% means no effect
UniProt O00255, sequence (O00255 whole entry, looked up): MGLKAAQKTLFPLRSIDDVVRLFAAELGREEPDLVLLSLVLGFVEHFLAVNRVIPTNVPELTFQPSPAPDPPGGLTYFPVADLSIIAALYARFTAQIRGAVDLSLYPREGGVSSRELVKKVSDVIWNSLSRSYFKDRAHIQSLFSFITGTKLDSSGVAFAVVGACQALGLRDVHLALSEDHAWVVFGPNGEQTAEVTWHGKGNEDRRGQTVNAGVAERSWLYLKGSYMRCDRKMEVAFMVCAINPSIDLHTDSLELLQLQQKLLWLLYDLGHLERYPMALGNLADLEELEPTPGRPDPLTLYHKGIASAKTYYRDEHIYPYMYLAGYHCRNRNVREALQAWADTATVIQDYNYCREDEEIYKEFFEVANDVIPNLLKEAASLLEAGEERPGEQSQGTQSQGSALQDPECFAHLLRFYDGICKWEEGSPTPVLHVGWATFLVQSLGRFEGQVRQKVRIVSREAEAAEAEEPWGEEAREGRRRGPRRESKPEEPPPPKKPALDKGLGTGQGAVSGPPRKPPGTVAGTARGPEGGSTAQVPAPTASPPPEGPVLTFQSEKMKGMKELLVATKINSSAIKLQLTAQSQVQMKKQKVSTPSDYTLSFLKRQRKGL
Potency means the concentration at half of the fitted maximal effect; tags describe the fitted curve by direction and shape or compound fluorescence and quenching.

Row | Compound | Potency | FP activity change, negative = inhibition
1 | O=C(CSc1ccc(Br)cc1)N1CCOCC1 | inconclusive: 22.4 µM [inhibitor, partial curve, poor fit] | –
2 | COc1ccc(Cl)cc1C(=O)Nc1ccccc1N1CCN(C)CC1 | inconclusive: 20 µM [inhibitor, single point] | –
3 | Cc1cc(C)c(C)c(S(=O)(=O)N2CCN(c3ccc(O)cc3)CC2)c1C | inconclusive: 25.1 µM [quencher, side channel, single point] | –
4 | O=C(Nc1ccc(-n2ccnc2P(=O)(O)c2ccccc2)cc1)c1ccccc1Br | inconclusive: 3.16 µM [inhibitor, single point] | –
5 | CCOC(=O)c1ccc(NC(=O)COc2ccccc2CNC2CCCC2)cc1 | inconclusive: 14.1 µM [fluorescent, side channel, partial curve] | –
6 | Cc1nc2c(ccc3nc(NC(=O)c4ccc5c(c4)OCCO5)sc32)s1 | inconclusive: 2 µM [quencher, side channel, partial curve, poor fit] | –
7 | CCCC(c1nnnn1CCOC)N1CCN(c2nc3ccccc3s2)CC1 (stereo not given) | inconclusive: 4.47 µM [inhibitor, single point] | –
8 | COc1ccc(/C=C/C(=O)O)cc1S(=O)(=O)NCc1cccnc1 | inconclusive: 0.0001 µM [inhibitor] | –
9 | O=C(NC1CC1)c1ccc(-c2ccccc2)cc1 | inconclusive: 39.8 µM [inhibitor, single point] | –
10 | O=S(=O)(Nc1ccc(N2CCCCC2)cc1)c1cccc2cccnc12 | – | inactive: -5.41%
11 | CC1=Nc2ccc(Br)cc2C(c2ccccc2)N1CC(=O)O (stereo not given) | inconclusive: 11.2 µM [inhibitor, single point] | –
12 | CCN1C(=O)c2cccc3c(S(=O)(=O)NCCCN4CCOCC4)ccc1c23 | inconclusive: 39.8 µM [inhibitor, single point] | –
13 | c1cn2cc(CSC3CCCCC3)nc2s1 | inconclusive: 39.8 µM [inhibitor, single point] | –
14 | CCc1cc2c(Nc3ccc(O)cc3)nc(C)nc2s1 | – | inactive: 28.6%
15 | COc1ccc(-c2cc(C3C4C=CCCC4(C)C(=O)N3Cc3ccccc3)ccc2F)cc1OC (stereo not given) | inconclusive: 2.82 µM [inhibitor, single point] | –
16 | Cc1ccccc1N(CC(=O)NCCc1ccccc1)C(=O)c1ccc(N2CCCC2)nc1 | inconclusive: 1.78 µM [fluorescent, side channel, full curve] | –
17 | COc1ccc(/C=C/C(=O)NC(=S)NNC(=O)[C@H]2C[C@@H]2c2ccccc2)cc1OC | inconclusive: 10 µM [quencher, side channel, partial curve] | –
18 | Cc1cc(C)c(C)c(S(=O)(=O)N2CCC(C(=O)NCC(c3ccccc3)N(C)C)CC2)c1C (stereo not given) | inconclusive: 3.16 µM [fluorescent, side channel, full curve, poor fit] | –
19 | CCN(c1ccc(NC(=O)COC(=O)c2ccc3ccccc3n2)cc1)C(C)C | inconclusive: 25.1 µM [inhibitor, partial curve] | –
20 | Oc1ccc(Cl)cc1CNc1cccc2cccnc12 | inconclusive: 25.1 µM [quencher, side channel, partial curve] | –

Row | Compound | Potency | FP activity change, negative = inhibition
21 | CC1=NN(c2ccc(C(=O)OC(C)C)cc2)C(=O)/C1=C\C=C\c1ccco1 | inconclusive: 12.6 µM [quencher, side channel, partial curve] | –
22 | CCn1c(=O)c(C(=O)NNC(=O)c2ccccc2Br)c(O)c2ccccc21 | inconclusive: 39.8 µM [quencher, side channel, single point] | –
23 | CC1CCN(C(c2ccccc2)c2nnnn2C(C)(C)C)CC1 (stereo not given) | inconclusive: 10 µM [inhibitor, partial curve] | –
24 | FC(F)(F)c1nnc2c3ccccc3c(Cl)nn12 | – | inactive: -2.32%
25 | Cc1cc(C)c2c(-n3cccc3)nn(C)c2n1 | inconclusive: 39.8 µM [inhibitor, single point] | –
26 | COc1cc(NS(=O)(=O)c2ccc(NC(=O)c3ccc([N+](=O)[O-])cc3)cc2)ncn1 | inconclusive: 25.1 µM [quencher, side channel, partial curve] | –
27 | FC(F)(F)c1cccc(NC(=S)NCc2ccccc2)c1 | inconclusive: 3.98 µM [quencher, side channel, full curve, poor fit] | –
28 | O=c1cc(-c2ccc(O)cc2)oc2cc(OC3OC(CO)C(O)C(O)[C@H]3O[C@@H]3OC[C@@](O)(CO)C3O)cc(O)c12 (stereo not given in full) | inconclusive: 39.8 µM [inhibitor, single point] | –
29 | CCCCN(C)CC(O)Cn1cc(/C=C/C(=O)c2ccc(OCC)cc2)c2ccccc21 (stereo not given) | inconclusive: 39.8 µM [inhibitor, single point] | –
30 | C/C(=N/NC(=O)c1ccc(Cl)s1)c1ccc(NC(=O)COc2ccc(Cl)cc2)cc1 | inconclusive: 12.6 µM [inhibitor, partial curve, poor fit] | –
31 | Nc1cc(C(F)(F)F)ccc1Nc1ccccc1 | inconclusive: 14.1 µM [quencher, side channel, partial curve] | –
32 | O=C(N/N=C/c1c[nH]c2ccccc12)c1cc(Cl)ccc1O | inconclusive: 25.1 µM [quencher, side channel, partial curve] | –
33 | CCCNC(=O)OCCC12CC3CC(CC(C3)C1)C2 | inconclusive: 44.7 µM [inhibitor, partial curve, poor fit] | –
34 | COc1ccccc1OC(C)C(=O)Nc1ccccc1C(=O)NCC1CCCO1 (stereo not given) | inconclusive: 0.708 µM [quencher, side channel, full curve] | –
35 | Cc1onc(-c2ccccc2)c1C(=O)NCCc1ccc(S(N)(=O)=O)cc1 | inconclusive: 39.8 µM [fluorescent, side channel, single point] | –
36 | CCCNC(=O)c1ccccc1NC(=O)c1ccc(CSc2ccccc2)cc1 | inconclusive: 3.98 µM [quencher, side channel, full curve] | –
37 | COc1ccc(NC(=O)c2cccc(OC(F)F)c2)cc1Cl | inconclusive: 17.8 µM [quencher, side channel, partial curve] | –
38 | CCn1cnc2cc(NCc3ccccc3Cl)ccc21 | – | inactive: 5.67%
39 | COc1ccc(CCNc2nc(N3CCOCC3)nc(N3CCOCC3)n2)cc1OC | inconclusive: 31.6 µM [inhibitor, single point] | –
40 | Clc1nc(Nc2ccccc2)nc(Nc2ccccc2)n1 | inconclusive: 14.1 µM [quencher, side channel, partial curve] | –

Row | Compound | Potency | FP activity change, negative = inhibition
41 | CN(CC(=O)Nc1ccc(Cl)cc1)Cc1cc(=O)n2ccsc2n1 | – | inactive: 11.1%
42 | COc1ccnc(CSC(N)=Nc2ccccc2OC)c1 | – | inactive: 4.18%
43 | CS(=O)(=O)Nc1cccc(-c2cc(NCc3ccccc3)ncn2)c1 | – | inactive: 0.927%
44 | CCSc1nnc(CNC(=O)C23CC4CC(CC(C4)C2)C3)n1Cc1ccccc1 | inconclusive: 14.1 µM [fluorescent, side channel, partial curve] | –
45 | O=C(/C=C/Nc1ccccc1F)c1cccs1 | – | inactive: 4.24%
46 | O=C(Nc1ccccc1)Nc1ccc(S(=O)(=O)N2CCCCC2)cc1 | inconclusive: 31.6 µM [quencher, side channel, partial curve] | –
47 | CCOc1ccc(NC(=O)Cn2cncc2-c2ccc([N+](=O)[O-])cc2)cc1 | inconclusive: 22.4 µM [quencher, side channel, partial curve] | –
48 | COc1cc(/C=C2/C(=N)N3C=CSC3=NC2=O)ccc1OCCCOc1ccccc1C | inconclusive: 8.91 µM [quencher, side channel, full curve] | –
49 | CCn1c(SCC(=O)OC)nc2sc3c(c2c1=O)CCC3 | inconclusive: 8.91 µM [inhibitor, single point] | –
50 | Cn1nnnc1SCCNC(=O)C1CCC(=O)N(CCc2cccc(F)c2)C1 (stereo not given) | inconclusive: 31.6 µM [inhibitor, partial curve] | –
51 | CC1Cc2ccccc2N1Cc1nc2scc(-c3cccs3)c2c(=O)[nH]1 (stereo not given) | inconclusive: 25.1 µM [quencher, side channel, single point] | –
52 | O=C(CCc1nc2cccnc2n1Cc1ccccc1)NCCc1ccc(Cl)cc1 | inconclusive: 25.1 µM [inhibitor, single point] | –
53 | O=C(CSc1nnc(-c2cccc(Cl)c2)o1)Nc1ccc2c(c1)OCCO2 | inconclusive: 35.5 µM [quencher, side channel, single point] | –
54 | O=C(c1cc(O)c(O)c([N+](=O)[O-])c1)c1ccccc1F | inconclusive: 28.2 µM [quencher, side channel, partial curve] | –
55 | O=C(Nc1cccc(F)c1)c1ccc(-c2ccccc2Cl)o1 | inconclusive: 12.6 µM [quencher, side channel, partial curve] | –
56 | COc1ccc(NC(=O)Nc2nnc(Cc3ccc(F)cc3)s2)cc1 | inconclusive: 4.47 µM [quencher, side channel, full curve, poor fit] | –
57 | CCOC(=O)c1ccc2[nH]c3ccccc3c2c1 | inconclusive: 14.1 µM [quencher, side channel, partial curve] | –
58 | COc1ccc(-c2ccc(/C=C3/C(=N)N4C=CSC4=NC3=O)o2)c([N+](=O)[O-])c1 | inconclusive: 20 µM [quencher, side channel, partial curve] | –
59 | COC(=O)c1cc(COc2ccc3ccc(=O)oc3c2)c(C)o1 | – | inactive: 5.07%
60 | COc1ccc(C2C(C#N)=C(N)Oc3c2c(-c2ccccc2)nn3-c2ccccc2)c(OC)c1OC (stereo not given) | inconclusive: 17.8 µM [quencher, side channel, partial curve] | –
